Results: the supplement of paper PMC3334620
Whole data set: some 33,000 sequences, median “E-score (-0.5 to 0.5)” near -0.035, cut for the highest 2% near 0.34. The list shows a part of the results.

molecular target: T1, Mot3 (UniProt P54785); assay: PBM E-score (8-mer binding enrichment) (E-score (-0.5 to 0.5)); higher = stronger / more preferred TF binding; most listed sequences are background and not binding sites; conditions: protein concentration: 200 nM; construct: GST-full length
T1 sequence: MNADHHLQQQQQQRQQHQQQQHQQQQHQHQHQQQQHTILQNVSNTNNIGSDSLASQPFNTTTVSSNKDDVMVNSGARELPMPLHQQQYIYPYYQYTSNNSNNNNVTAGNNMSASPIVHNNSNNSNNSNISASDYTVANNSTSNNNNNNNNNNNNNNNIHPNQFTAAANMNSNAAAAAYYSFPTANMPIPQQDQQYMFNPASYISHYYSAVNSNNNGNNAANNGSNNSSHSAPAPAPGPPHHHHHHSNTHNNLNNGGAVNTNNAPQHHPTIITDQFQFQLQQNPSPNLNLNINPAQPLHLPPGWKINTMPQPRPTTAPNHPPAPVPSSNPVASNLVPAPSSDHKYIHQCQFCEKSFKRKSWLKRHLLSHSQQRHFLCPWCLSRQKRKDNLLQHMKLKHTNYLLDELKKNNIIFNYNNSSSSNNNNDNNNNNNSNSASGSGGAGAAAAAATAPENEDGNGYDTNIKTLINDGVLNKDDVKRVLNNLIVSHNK
Summary of the method: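 For each ungapped eight-base word taken together with its reverse complement, the Universal PBM Analysis Suite assigned an E-score. Binding data came from GST-tagged yeast transcription factors, applied at about 100-200 nM, on universal all-10-mer Agilent arrays made double-stranded by primer extension. Fluorescent anti-GST marked bound protein, and scans were normalised with masliner.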

Point of comparison: ACTTCGAA, “PBM E-score” value -0.0542. Against it:
- GAATTTTA — higher, 0.0878
- ACTTGCCA — lower, -0.1
- CTCATAGC — lower, -0.157
- ACTAGAAC — higher, -0.0138
- CATCCCAA — higher, -0.0379
- CAGACAGA — higher, 0.0746
- GGTACGAC — lower, -0.0554
- ACGATCAT — higher, 0.0802
- CATATCTC — lower, -0.0966
- CACTCCGC — lower, -0.196
- GCACTCCA — higher, 0.0334
- ACTTTCAG — higher, -0.0383
- GCCGAGAC — lower, -0.15
- CTCGATGC — higher, -0.0372
- GGCTACTA — lower, -0.0622
- CACGTGAA — higher, 0.183
- AGCACACG — higher, 0.0884
- AAAATAAC — higher, 0.122
- CAGGGTAA — higher, 0.0319
- CAGGATCA — higher, 0.147
- CCTACTAG — higher, 0.121
- CGCGGACC — lower, -0.147
- ATATGGCG — lower, -0.183
- AGTGGATC — higher, -0.0313
- GGTCAAGA — higher, -0.0528
- CGGACATC — lower, -0.247
- CGCCGAAA — lower, -0.111
- TATGGAAA — lower, -0.133
- ATCGCTTG — higher, -0.0296
- AAGTACGT — higher, 0.0949
- CGGGATCA — lower, -0.168
- GTCGGCAC — lower, -0.129
- ACGAATGC — higher, 0.0202
- AGGCAATC — higher, 0.481
- CCTTTGTA — higher, 0.289
- CCACTGGG — lower, -0.18
- ACTTTTCA — higher, 0.0743
- AGCCCAAT — higher, 0.0566
- TGGTACCA — higher, -0.0506
- ACGACATG — higher, 0.327
- CAGCAATC — lower, -0.262
- CATCAACG — higher, 0.00915
- ACATCACT — higher, 0.178
- GATAGGAC — lower, -0.294
- GGGTTAGA — lower, -0.237
- CAAGAAGA — higher, 0.0974
- AAGAGTGT — higher, -0.0357
- AAAACCCG — higher, 0.155
- CTATTCAC — higher, 0.116
- AAACACAC — higher, 0.287
- AAGCGATC — lower, -0.0933
- TAATCCTA — higher, 0.0867
- AACATGAT — higher, 0.349
- CACGAACC — higher, 0.0932
- CGCAAGAG — lower, -0.0975
- GGGGCTAC — lower, -0.269
- GGATAGAC — lower, -0.151
- ACGGTACT — lower, -0.207
- ACCTACAT — higher, 0.289
- CGTTTTGC — higher, 0.144
- ATGTGTCC — higher, -0.0237
- GGCTGGAA — lower, -0.236
- CCAAAGTC — lower, -0.189
- GGCCAAGA — lower, -0.37
- CGTGAGAG — lower, -0.159
- CCCTGCAG — higher, -0.0541
- CCTTCACG — higher, 0.0566
- AACTAAGT — higher, 0.0135
- GCATTACA — higher, 0.35
- CAAAAACC — higher, 0.0383
- CTGACAGC — lower, -0.17
- GCTGGGGA — lower, -0.157
- CTCGCACA — higher, -0.03
- AACATGTC — higher, 0.296
- GACAGACA — higher, -0.00417
- ATTCGGGA — lower, -0.217
- CCATCGTA — higher, 0.105
- CCCGGGAA — lower, -0.203
- AATTCTTA — higher, 0.0262
- ACCGCAAA — lower, -0.0982
- ATTATCTG — higher, -0.0449
- CTGGAGGC — lower, -0.114
- CTTTGCCA — lower, -0.0932
- AGTTTATC — higher, 0.122
- ATTGCGGC — lower, -0.165
- ATCTTACG — higher, 0.129
- AAGTTTGG — lower, -0.102
- CCGCCGAG — lower, -0.215
- AATAGAGG — lower, -0.219
- ATTAACGA — higher, 0.215
- AACTGCGG — lower, -0.116
- CGACAACG — higher, 0.00035
- AGAGTATG — lower, -0.133
- CCAATTTC — lower, -0.228
- CGATACAG — lower, -0.105
- CCGGGAAG — lower, -0.116
- AAGATCGC — lower, -0.0568
- AAATCGCT — lower, -0.132
- CAGTAGCC — lower, -0.215
- GGTACTTA — higher, -0.0015
- ACCTTTGC — higher, 0.0791
- ATAGAGTC — lower, -0.0873
- CCAGTGGG — lower, -0.139
- CCGTAGCA — lower, -0.189
- CATTGACG — higher, -0.0292
- GAACGAAA — lower, -0.0743
- AGGTTAAC — higher, 0.225
- CCGTCCGA — lower, -0.201
- ACACGTCC — higher, 0.161
- ATATGTTG — higher, 0.246
- AAGGCCAG — higher, 0.0775
- AGCGTACT — lower, -0.129
- CTACCAAG — lower, -0.0675
- CAACGAAG — higher, -0.00267
- TACTTGAA — higher, 0.201
- GCAGTACA — higher, 0.0866
- AGACCAAT — higher, -0.0148
- AGGGCGGG — lower, -0.23
- ATATCTCC — lower, -0.119
- GTGAAGAA — higher, 0.116
- ATGGACAG — lower, -0.172
- CCCCAAAG — lower, -0.132
- GGAAATCA — higher, -0.0276
- GTCGAGAA — higher, 0.0169
- AGGTGCAA — higher, 0.148
- AAACGCGA — higher, 0.155
- GTCGCGTA — higher, 0.309
- ATCGCCAT — lower, -0.0627
- ATCCGCTC — lower, -0.252
- ATAAAGAC — higher, -0.00279
- ATTAAAAG — higher, 0.106
- AAGCGAGT — higher, -0.0166
- ACTTATAG — lower, -0.0587
- CGAGAATA — higher, -0.0446
- ACACACAC — higher, 0.291
- GGATTACA — higher, 0.371
- AGTGATAT — lower, -0.178
- CATCGGCA — higher, 0.104
- CATCTTGG — lower, -0.0926
- CGAAGTAC — higher, 0.00632
- GAAGGGGC — lower, -0.127
- TGAGAACA — higher, 0.15
- CGTGGTCA — higher, 0.0859
- AATATTAC — higher, 0.242
- ACTCTGGC — lower, -0.393
- ATAAAATG — higher, -0.0118
- CAGTATCC — higher, -0.0235
- GAACCGAC — lower, -0.0799
- CGGATAAC — higher, 0.139
- GGGCGCAC — lower, -0.281
- CTCCCTAC — higher, 0.019
- AGCGGGAT — lower, -0.277
- ATATCGCA — lower, -0.233
- AAGGACCA — lower, -0.13
- ATCATCGG — lower, -0.248
- ATAACAAT — higher, 0.126
- ACCCCCAC — lower, -0.221
- TAAGGGGA — higher, 0.0151
- ATTGACGC — higher, 0.09
- AGAGTCAT — lower, -0.241
- AGCGTCAA — higher, -0.046
- GCGCGTTA — higher, 0.235
- ACACGTGT — higher, 0.363
- AGGATGAC — lower, -0.178
- ATGGTCGA — lower, -0.0987
- ACAGATGG — lower, -0.119
- CGGTATTA — lower, -0.0614
- GAACGTCA — lower, -0.147
- GGAAGAGA — higher, 0.0688
- CCGCCAGC — lower, -0.227
- ATTGAGTA — higher, 0.165
- CCGGGAGG — lower, -0.236
- CAGAAGGC — higher, 0.232
- CGAAATGA — higher, 0.0554
- CTGTTGGA — higher, 0.0392
- AGACAGAA — higher, -0.00345
- GATATGGC — lower, -0.45
- ATTTCATG — higher, -0.00351
- GGAGACTA — lower, -0.0846
- TAGCTGAA — higher, -0.0324
- ATGGCCTG — lower, -0.157
- AAAGAGCC — lower, -0.167
- CTTTGCTC — lower, -0.176
- AGCTTAAG — higher, 0.00822
- GTCTGCAC — lower, -0.211
- GCTATATA — higher, 0.105
- CGATCAAC — higher, 0.0859
- CCCCGCTC — lower, -0.426
- ACGGTCCA — higher, -0.0522
- ATGAGATG — lower, -0.0735
- ACATCACG — higher, 0.152
- ACCGCCCC — lower, -0.0601
- TACACTAA — higher, 0.159
- AGGGCTGC — lower, -0.252
- GAAACCCC — higher, 0.00285
- CATCAGAA — higher, 0.0925
- GGACACGA — higher, 0.0135
- GGGTTTGA — lower, -0.165
- GTGTGTCA — higher, 0.269
- ATTTCGGA — lower, -0.137
- AGCAAGAA — higher, -0.0228
- AGTTCCCG — lower, -0.116
- CGCTTCCG — lower, -0.233
- AACTAGGC — higher, 0.32
- ACCGGACT — lower, -0.371
- CAGCGATG — lower, -0.197
- GAGCCAAC — higher, 0.0965
- GAGTTGAC — lower, -0.0628
- CAGTCCTA — lower, -0.167
- CTTGCCGA — lower, -0.0816
- ATAACCTA — higher, 0.131
- CCGCACCG — lower, -0.0682
- ATTAGCTC — higher, -0.0536
- ACCTCAGC — lower, -0.124
- ACATTGAA — higher, 0.196
- ATCTAGCC — lower, -0.296
- CAGACTCG — lower, -0.238
- ACACGCTC — higher, 0.305
